PMC12136788
Some of the results follow.

B1: chr9:34635388:34635489:-|3pUTR|ENSG00000147955|msi1|total|mutant (ssRNA)
RNA: GGGAGUUCUACAGUCCGACGAUCGGGAUAUCCAUGCUUAUGUAUCCAAACACAGAGACCCAUGGGAACAAAUGAGACACAUACCGAUACUGAGACCUGUGUGUACAGCCGGACCAUGCACUCACACCCAUCUGGAGAGGGAGCCAACAGAGGAUUGAGCAUCA
B2: chr3:10101824:10101929:+|3pUTR|ENSG00000144554|unk|FALSE|unique (ssRNA)
RNA: GGGAGUUCUACAGUCCGACGAUCAAAAUCUCUGAGUCAUGAUUCUGGACUUUGGGAGCUAGUUUUGAAACUCUGAUUUAUUGUAGAACUUAGGCUUGUACCAAUUUUACAAAUAAAUUCUGUUCUAAGUUCUGCCUCAGUUGCCAACAGAGGAUUGAGCAUCA
B3: chr17:63766011:63766126:-|CDS|ENSG00000108588|unk|FALSE|unique (ssRNA)
RNA: GGGAGUUCUACAGUCCGACGAUCGGUGUUUGGGAGUGUCUCUGAAGCCAAGUUUGAUGAUUUUGAGGAUGAGGAGGACAUAGUAGAGUAUGAUGAUAAUGACUUCGCUGAAUUUGAGGAUGUCAUGGAAGACUCUGUUACUGACAACAGAGGAUUGAGCAUCA
B4: chr4:48851844:48851957:+|CDS|ENSG00000109180|unk|FALSE|unique (ssRNA)
RNA: GGGAGUUCUACAGUCCGACGAUCAUAUGACUCAAGUGUGAGUGGUCAAUCAUCUUUUGUGACAUCCCCAGCAGCAGACAACAUAGAAAUGCUUCCUCAUUAUGAGCCAAUUCCAUUCAGUUCUUCUAUGAAUGAAUCUGCUCCCAACAGAGGAUUGAGCAUCA
B5: chr19:41259979:41260080:+|3pUTR|ENSG00000167601|msi1|FALSE|unique (ssRNA)
RNA: GGGAGUUCUACAGUCCGACGAUCCCUGUCUUCCUACCUAUCCCACCUCCAUCCCAGACAGGUCCCUCCCCUUCUCUGUGCAGUAGCAUCACCUUGAAAGCAGUAGCAUCACCAUCUGUAAAAGGAAGGGGUUGGAUUGCAAUACAACAGAGGAUUGAGCAUCA
B6: chr1:227780961:227781062:+|3pUTR|ENSG00000143740|unk|total|mutant (ssRNA)
RNA: GGGAGUUCUACAGUCCGACGAUCCCUGGAAGAGGCCGCCCUCGUCUUGUCUCGGCUCCCUUUCAUGGACAGACUGGCCUUCUCCGCUGUACUAUAAAUUUGUGAGUGAAGUCCGAGCCCAGCUCACUCCGCCAGCUCACUUUGCAACAGAGGAUUGAGCAUCA

Molecular target: MSI1 full-length (mouse, UniProt Q61474 1-362)
Assay: nsRBNS (natural sequence RNA bind-n-seq); RBNS binding buffer (assumed for nsRBNS): 25 mM Tris pH 7.5, 150 mM KCl, 3 mM MgCl2, 0.01% Triton X-100, 500 ug/ml BSA, 20 U/ml SUPERase-In, 4 C; UNK is unkempt and MSI1 is Musashi-1; names of the RNAs are library labels; protein concentration not given here; high values mean tight binding

Chain of UniProt Q61474 (Q61474 whole entry): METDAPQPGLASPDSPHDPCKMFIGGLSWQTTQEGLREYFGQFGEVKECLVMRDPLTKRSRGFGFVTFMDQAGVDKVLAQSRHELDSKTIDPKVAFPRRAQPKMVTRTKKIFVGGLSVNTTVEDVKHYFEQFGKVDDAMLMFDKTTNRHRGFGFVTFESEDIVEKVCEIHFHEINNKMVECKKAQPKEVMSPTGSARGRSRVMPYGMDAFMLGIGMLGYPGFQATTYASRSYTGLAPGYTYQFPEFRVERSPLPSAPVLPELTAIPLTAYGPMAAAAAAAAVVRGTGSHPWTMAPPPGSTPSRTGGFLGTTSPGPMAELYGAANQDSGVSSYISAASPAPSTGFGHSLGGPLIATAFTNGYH

| Binder | binding signal [enrichment R] |
| --- | --- |
| B1 | 0.561 |
| B2 | 0.376 |
| B3 | 0.458 |
| B4 | 0.341 |
| B5 | 0.891 |
| B6 | 0.459 |
